Data taken from the supplement of paper PMC6089552.
Screen size: about 3,200 compounds; about 300 (9.4%) showed activity. The list shows a part of the results, in another mix than the full data.

System: A673/TR/shEF
Experiment: cell viability (LOESS-normalised, relative to median of negative controls) (log2 ratio); higher = more viable cells (less compound effect), active = hit call of the paper (over 3 MAD below the median)
Conditions: treatment time: 72 h
Outline: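 For three days, A673/TR/shEF Ewing sarcoma cells in 384-well plates (1,500 per well) were treated with library compounds at two or more concentrations or with DMSO controls, after doxycycline had been added or withheld 24 h beforehand to induce EWS-FLI1 shRNA knockdown. Viability was read by CellTiter-Glo luminescence on an Envision reader. The data were LOESS-corrected per plate, divided by the median of negative controls and log2-transformed.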

[1] = 0.103 µM, library screen: screen3, EWS-FLI1 expression: high (no doxycycline)
[2] = 0.103 µM, library screen: screen3, EWS-FLI1 expression: low (doxycycline-induced shRNA knockdown)
[3] = 0.308 µM, library screen: screen3, EWS-FLI1 expression: high (no doxycycline)
[4] = 0.308 µM, library screen: screen3, EWS-FLI1 expression: low (doxycycline-induced shRNA knockdown)
[5] = 0.926 µM, library screen: screen3, EWS-FLI1 expression: high (no doxycycline)
[6] = 0.926 µM, library screen: screen3, EWS-FLI1 expression: low (doxycycline-induced shRNA knockdown)
[7] = 2.8 µM, library screen: screen3, EWS-FLI1 expression: high (no doxycycline)
[8] = 2.8 µM, library screen: screen3, EWS-FLI1 expression: low (doxycycline-induced shRNA knockdown)
[9] = 8.3 µM, library screen: screen3, EWS-FLI1 expression: high (no doxycycline)
[10] = 8.3 µM, library screen: screen3, EWS-FLI1 expression: low (doxycycline-induced shRNA knockdown)
[11] = 25 µM, library screen: screen3, EWS-FLI1 expression: high (no doxycycline)
[12] = 25 µM, library screen: screen3, EWS-FLI1 expression: low (doxycycline-induced shRNA knockdown)
[13] = 0.25 µM, library screen: screen2, EWS-FLI1 expression: high (no doxycycline)
[14] = 0.25 µM, library screen: screen2, EWS-FLI1 expression: low (doxycycline-induced shRNA knockdown)
[15] = 2.5 µM, library screen: screen2, EWS-FLI1 expression: high (no doxycycline)
[16] = 2.5 µM, library screen: screen2, EWS-FLI1 expression: low (doxycycline-induced shRNA knockdown)
[17] = 0.25 µM, library screen: screen1, EWS-FLI1 expression: high (no doxycycline)
[18] = 0.25 µM, library screen: screen1, EWS-FLI1 expression: low (doxycycline-induced shRNA knockdown)
[19] = 2.5 µM, library screen: screen1, EWS-FLI1 expression: high (no doxycycline)
[20] = 2.5 µM, library screen: screen1, EWS-FLI1 expression: low (doxycycline-induced shRNA knockdown)

Measured: cell viability (log2)

Cn1cc(C2=C(c3cn(C4CCN(Cc5ccccn5)CC4)c4ccccc34)C(=O)NC2=O)c2ccccc21
inactive: [1] -0.105 | [2] -0.0101 | [3] -0.0168 | [4] 0.054 | [5] -0.0718 | [6] 0.0485 | [7] -0.024 | [8] -0.0681 | [9] 0.0419 | [10] 0.0589 | [11] -0.03 | [12] 0.0493

NC(=O)c1cc(N2CC2)c([N+](=O)[O-])cc1[N+](=O)[O-]
inactive: [13] 0.145 | [14] 0.126 | [15] 0.011 | [16] 0.0989

C=CCN1CC[C@]23c4c5ccc(O)c4O[C@H]2C(=O)CC[C@@]3(O)[C@H]1C5
inactive: [17] 0.125 | [18] 0.0831 | [13] 0.177 | [14] 0.0872 | [19] 0.148 | [20] 0.105 | [15] 0.0889 | [16] 0.129

Cc1ccc2cc3c(ccc4ccccc43)c3c2c1CC3
inactive: [17] 0.0577 | [18] -0.00243 | [19] 0.111 | [20] 0.12

C[C@@H]1C(=O)O[C@H]2[C@H]1CC[C@@]1(C)C=CC(=O)[C@@]3(C)O[C@@]213
inactive: [17] -0.0341 | [18] 0.0137 | [19] 0.0354 | [20] 0.0553

CC[C@@H](C)C(=O)O[C@H]1[C@H](O)[C@H]2[C@@H](CN3C[C@@H](C)CC[C@H]3[C@@]2(C)O)[C@@H]2C[C@]34O[C@]5(O)[C@@H](OC(=O)[C@@](C)(O)[C@@H](C)O)CC[C@@]3(C)[C@@H]5[C@@H](OC(C)=O)[C@@H](OC(C)=O)[C@H]4[C@@]21O
inactive: [17] 0.0432 | [18] 0.0125 | [19] 0.068 | [20] 0.0811

C=CCN1CCC23c4c5ccc(O)c4O[C@@H]2/C(=N/NC(=O)c2ccccc2)CCC3(O)[C@H]1C5 (stereo partly specified)
inactive: [13] 0.0804 | [14] 0.0684 | [15] 0.0878 | [16] 0.0887

CCCC(C)C1(CC)C(=O)NC(=O)NC1=O (stereo unspecified)
inactive: [17] 0.0325 | [18] 0.0542 | [19] 0.0314 | [20] 0.0176

C=CCc1ccc2c(c1)OCO2
inactive: [17] 0.0124 | [18] 0.0225 | [19] 0.144 | [20] 0.0477

CCNc1nc(Cl)nc(NC(C)C)n1
inactive: [17] 0.143 | [18] 0.0518 | [19] 0.132 | [20] 0.0856

S=C=Nc1cccc(C2(N3CCCCC3)CCCCC2)c1
inactive: [13] 0.168 | [14] 0.105 | [15] 0.16 | [16] 0.118

CNC(=O)CSP(=S)(OC)OC
inactive: [17] 0.102 | [18] 0.0684 | [19] 0.15 | [20] 0.0982

CC(=O)O[C@H]1C[C@@H]2CC[C@@H]3[C@H](CC[C@@]4(C)[C@H]3C[C@H]([N+]3(C)CCCCC3)[C@@H]4OC(C)=O)[C@@]2(C)C[C@@H]1[N+]1(C)CCCCC1
inactive: [1] 0.0285 | [2] 0.0357 | [13] 0.133 | [14] 0.105 | [3] 0.115 | [4] 0.051 | [5] 0.183 | [6] 0.0779 | [15] 0.145 | [16] 0.0752 | [7] 0.112 | [8] 0.0286 | [9] 0.106 | [10] 0.0203 | [11] 0.16 | [12] 0.0865
